The campaign covered roughly 310,000 compounds. About 2,200 (0.71%) showed an effect of 50% or more. The effect is printed as a negative number. The list shows a part of the results.

human ether-à-go-go-related gene (hERG) potassium channel, sequence (Q12809 whole entry, looked up): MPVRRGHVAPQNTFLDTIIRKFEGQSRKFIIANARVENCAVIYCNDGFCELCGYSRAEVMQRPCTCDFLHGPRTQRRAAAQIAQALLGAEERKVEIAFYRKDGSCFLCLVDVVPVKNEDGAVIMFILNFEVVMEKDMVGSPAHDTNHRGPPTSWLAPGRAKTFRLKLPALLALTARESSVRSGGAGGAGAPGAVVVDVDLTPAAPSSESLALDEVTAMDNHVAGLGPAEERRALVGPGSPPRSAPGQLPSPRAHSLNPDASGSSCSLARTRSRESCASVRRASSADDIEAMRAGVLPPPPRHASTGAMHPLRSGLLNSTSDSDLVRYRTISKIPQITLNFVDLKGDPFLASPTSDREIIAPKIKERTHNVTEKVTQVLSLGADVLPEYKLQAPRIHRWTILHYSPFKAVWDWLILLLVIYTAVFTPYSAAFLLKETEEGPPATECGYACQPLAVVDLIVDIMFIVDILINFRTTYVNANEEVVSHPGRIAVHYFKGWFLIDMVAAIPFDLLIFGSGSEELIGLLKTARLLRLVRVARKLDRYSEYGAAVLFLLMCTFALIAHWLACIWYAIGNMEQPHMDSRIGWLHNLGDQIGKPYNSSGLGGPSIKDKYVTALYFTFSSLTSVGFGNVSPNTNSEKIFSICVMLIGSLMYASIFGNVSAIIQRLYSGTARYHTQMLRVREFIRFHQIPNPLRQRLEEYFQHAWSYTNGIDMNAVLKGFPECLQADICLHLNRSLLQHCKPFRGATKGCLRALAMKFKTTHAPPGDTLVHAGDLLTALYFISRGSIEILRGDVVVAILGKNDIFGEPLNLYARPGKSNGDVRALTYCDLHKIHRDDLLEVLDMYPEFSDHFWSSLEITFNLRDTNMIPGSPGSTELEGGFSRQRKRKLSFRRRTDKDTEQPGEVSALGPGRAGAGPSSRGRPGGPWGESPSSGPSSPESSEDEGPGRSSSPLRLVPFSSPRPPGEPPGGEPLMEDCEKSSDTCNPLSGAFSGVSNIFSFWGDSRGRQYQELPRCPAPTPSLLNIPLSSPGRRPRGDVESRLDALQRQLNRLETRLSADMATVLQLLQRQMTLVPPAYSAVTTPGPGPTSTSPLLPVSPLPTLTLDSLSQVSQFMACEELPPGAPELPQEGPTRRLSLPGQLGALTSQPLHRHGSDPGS

This assay has as its target human ether-à-go-go-related gene (hERG) potassium channel (human, UniProt Q12809). Kind of assay: primary screen, population patch clamp on CHO cells stably expressing hERG.
In the case of `CCN(CC(=O)Nc1cc(Cl)ccc1C)C(=O)CCOc1ccc(C)cc1`, the “hERG current change (%, negative = inhibition) at 1uM” value stood at 12%.
The figure for `COCc1cc(C)nc(OCC(=O)N/N=C/c2ccccc2)c1C#N` is 8%; for `Nc1c(C(=O)NCc2ccco2)c2nc3ccccc3nc2n1Cc1ccccc1` it is 11.4%; for `N#Cc1ccc(C(CC(=O)O)N2Cc3ccccc3C2=O)cc1` (stereo not drawn) it is 13.1%.
The figure for `COCCNC(=O)c1ccc(NC(=O)C2(c3ccccc3)CCCC2)cc1` is -0.294%; for `Cc1ccc(C)c(N2CCN(C(=O)c3ccc(N4CCOCC4)c([N+](=O)[O-])c3)CC2)c1` it is 1.3%; for `O=C(NCCCl)NNc1c(Cl)cc(Cl)cc1Cl` it is 6.45%.
In the case of `O=C(CN(Cc1ccccc1)C(=O)CNS(=O)(=O)c1ccccc1)NCc1ccco1` it was 15.3%.
Take `O=C(CS(=O)(=O)Nc1ccc(F)cc1Cl)Nc1ccc(F)cc1Cl`: the “hERG current change (%, negative = inhibition) at 1uM” value is given as 14.2%.
The figure for `COc1ccccc1N(CC(O)Cn1c(C)nc2ccccc21)S(=O)(=O)c1ccccc1` (stereo not drawn) is 3.24%.
In the case of `CCCCNC(=S)NNC(=O)c1csc(C)c1C` it was -1.96%; in that of `O=C(Nc1ccc(C(F)(F)F)cc1)C1CCN(c2cnccn2)CC1`, 10.6%.
The figure for `Cc1cc(C(=O)Nc2cccc(C)c2C)c2ccccc2n1` is 9.46%.
Take `COc1ccc(Nc2nnc(Cc3ccccc3)c(=O)[nH]2)c(OC)c1`: the “hERG current change (%, negative = inhibition) at 1uM” value is listed as 8.03%.
In the case of `COc1ccccc1CC(=O)N(CCC#N)CCC#N` it was -3.58%.
The figure for `CC1CCCCN1CC(=O)NC(=O)NCc1ccccc1` (stereo not drawn) is 10.7%; for `O=C(CSc1ccc(-c2ccco2)nn1)N1CCCCC1` it is 6.81%; for `Clc1ccc(Cc2nnc(-c3cccs3)o2)cc1` it is -0.479%.
In the case of `COc1ccc2cc(S(=O)(=O)Nc3ccccn3)ccc2c1` it was 13.9%; in that of `CC1(NC(=O)C2CCCCC2)CCS(=O)(=O)C1` (stereo not drawn), 10.4%; in that of `O=C(c1ccco1)N1CCc2[nH]nc(-c3ccccc3)c2C1`, 14.9%.
On to `C=CCC1S/C(=N/N=C/c2cccs2)NC1=O` (stereo not drawn), for which the “hERG current change (%, negative = inhibition) at 1uM” value came out at 7.37%.
In the case of `Cc1cccc(NC(=O)c2n[nH]c([N+](=O)[O-])c2Br)c1C` it was 7.29%; in that of `O=C(C1CCN(S(=O)(=O)c2cccc3nsnc23)CC1)N1CCCCC1`, 17.7%; in that of `O=C(NCc1ccc(Cl)cc1)c1cccc2c1C(=O)N(CC1CCCO1)C2` (stereo not drawn), -7.8%.
In the case of `O=C(Nc1ccccc1)C1=C[C@H](c2ccc3c(c2)OCO3)C[C@H](OCc2ccc(CO)cc2)O1` it was 9.11%.
In the case of `Cc1ccc(C(=O)/C=C/c2c[nH]c3ccccc23)cc1` it was 0.301%.
For `COCCCn1c(SCC(=O)NC2CCCCC2)nnc1-c1ccco1`, the “hERG current change (%, negative = inhibition) at 1uM” value was 11.6%.
In the case of `CS(=O)(=O)Nc1ccc(C(=O)N2CCCC2)cc1` it was 3.07%.
On to `CC(C)(C)c1ccc(C(=O)NNC(=O)Cc2ccccc2)cc1`, for which the “hERG current change (%, negative = inhibition) at 1uM” value came out at 19%.
In the case of `Cc1ccc(Nc2nnc(SCC(=O)Nc3ccccc3[N+](=O)[O-])s2)cc1` it was 8.96%; in that of `O=[N+]([O-])c1cc(S(=O)(=O)/N=C(/c2ccccc2)N2CCOCC2)ccc1Cl`, 4.79%.
In the case of `CCOc1ccc2[nH]c3c(N4CCN(c5ccccn5)CC4)ncnc3c2c1` it was -13%; in that of `Oc1ccccc1C(=S)N1CCN(c2cccc(Cl)c2)CC1`, 4.72%.
The figure for `O=C(CNS(=O)(=O)c1cccs1)N1CCc2ccccc2C1` is 6.19%; for `NC(=O)c1ccc(NC(=O)COC(=O)CC2Sc3ccccc3NC2=O)cc1` (stereo not drawn) it is 14.3%; for `Cc1nc(Nc2ccc(F)cc2)nc(Nc2ccc(F)cc2)c1[N+](=O)[O-]` it is 9.4%.
Consider `CCN(CC(=O)NC(C)C)C(=O)c1ccc(S(=O)(=O)N(C)c2ccccc2OC)cc1`, for which the “hERG current change (%, negative = inhibition) at 1uM” value turned out to be 10.8%.
The figure for `O=C1NC(=O)N(Cc2ccccc2Cl)C(=O)/C1=C/c1cccs1` is 12.6%.
The figure for `O=C(Nc1cc(C(F)(F)F)ccc1Cl)c1cccnc1` is 2.82%; for `O=C(NC(=O)c1cnccc1C(F)(F)F)Nc1ccccc1` it is 11%; for `C[C@]12CCC(=O)C=C1[C@H](O)C[C@@H]1[C@@H]2[C@@H](O)C[C@@]2(C)[C@H]1CC[C@]2(O)C(=O)CO` it is 11.5%.
In the case of `CC(=O)C1=C(C)OC(N)=C(C#N)C1c1cc([N+](=O)[O-])ccc1Cl` (stereo not drawn) it was 4.51%; in that of `COc1ccccc1CNC(=O)c1ccc(NC2=NC3CS(=O)(=O)CC3S2)cc1` (stereo not drawn), 15%; in that of `COCCn1c(SCC(=O)Nc2cc(C)on2)nc2ccccc21`, 10.4%.
As to `CC(C)NC(=S)N/N=C/c1sc(N2CCCCC2)nc1-c1cccs1`, the “hERG current change (%, negative = inhibition) at 1uM” value is -2.03%.
For `CCCCN(C(=O)CSc1nc2ccccc2n1CC)C1CCS(=O)(=O)C1` (stereo not drawn), the “hERG current change (%, negative = inhibition) at 1uM” value amounted to 6.7%.
The figure for `COc1ccc2cc(OCC(=O)NNC(=O)Nc3ccc(OC)c(OC)c3)ccc2c1` is 8.81%; for `CC(c1ccco1)N(C(=O)c1cccs1)c1ccccn1` (stereo not drawn) it is 10.1%.
In the case of `COCCNC(=O)c1ccc(C)c(NC(=O)C2=C(C)OCCS2)c1` it was 10.1%.
The figure for `Nc1nonc1NC(=O)CSc1nc2ccccc2s1` is 11.2%.
Consider `C/C(=N/NS(=O)(=O)c1ccc(C)cc1)[C@H]1C[C@@H]1c1ccccc1`, for which the “hERG current change (%, negative = inhibition) at 1uM” value was -0.507%.
The figure for `O=C(NCCCN1CCCC1=O)C1CCN(S(=O)(=O)c2c(Cl)cccc2Cl)CC1` is -2.09%.
The figure for `CC1(C)C(=O)Nc2ccccc2N1C(=O)COC(=O)C1CCCCC1` is 2.65%; for `Cc1cccc(OP(=O)(Nc2cccnc2)Oc2cccc(C)c2)c1` it is -21.4%.
In the case of `Cc1cc(NC(=O)CCC2CCCCC2)no1` it was 1.07%; in that of `O=C(Nc1cccc(C(=O)N2CCOCC2)c1)c1ccccc1`, -3.28%.

These data come from publication PMC4336329 (PLoS ONE, 2015).
